{"source": "PubChem BioAssay AID504333", "about": "(National Center for Advancing Translational Sciences (NCATS), 2011)", "note": "About 16,000 (4.4%) of roughly 360,000 compounds were called active. This list was built around the results that the source calls inconclusive (neither active nor inactive); the mix of calls is not that of the screen. Calls follow the shape of the dose curve; as a rule, active = well fitted inhibition curve with a large enough effect; inconclusive = small, poorly fitted or top-dose-only effect; inactive = no such curve, though single readings can be large or run the other way. Potencies of inconclusive entries are doubtful fits and often do not repeat. % is scaled to controls: 0 for no effect and ±100 for the full control effect; potency is read from the fitted curve at half-maximal effect; tags tell the direction and shape of the fitted curve."}
{"target": "Bromodomain adjacent to zinc finger domain protein 2B (Homo sapiens) (UniProt Q9UIF8)", "sequence (Q9UIF8 whole entry, looked up, the tested form may be a part)": "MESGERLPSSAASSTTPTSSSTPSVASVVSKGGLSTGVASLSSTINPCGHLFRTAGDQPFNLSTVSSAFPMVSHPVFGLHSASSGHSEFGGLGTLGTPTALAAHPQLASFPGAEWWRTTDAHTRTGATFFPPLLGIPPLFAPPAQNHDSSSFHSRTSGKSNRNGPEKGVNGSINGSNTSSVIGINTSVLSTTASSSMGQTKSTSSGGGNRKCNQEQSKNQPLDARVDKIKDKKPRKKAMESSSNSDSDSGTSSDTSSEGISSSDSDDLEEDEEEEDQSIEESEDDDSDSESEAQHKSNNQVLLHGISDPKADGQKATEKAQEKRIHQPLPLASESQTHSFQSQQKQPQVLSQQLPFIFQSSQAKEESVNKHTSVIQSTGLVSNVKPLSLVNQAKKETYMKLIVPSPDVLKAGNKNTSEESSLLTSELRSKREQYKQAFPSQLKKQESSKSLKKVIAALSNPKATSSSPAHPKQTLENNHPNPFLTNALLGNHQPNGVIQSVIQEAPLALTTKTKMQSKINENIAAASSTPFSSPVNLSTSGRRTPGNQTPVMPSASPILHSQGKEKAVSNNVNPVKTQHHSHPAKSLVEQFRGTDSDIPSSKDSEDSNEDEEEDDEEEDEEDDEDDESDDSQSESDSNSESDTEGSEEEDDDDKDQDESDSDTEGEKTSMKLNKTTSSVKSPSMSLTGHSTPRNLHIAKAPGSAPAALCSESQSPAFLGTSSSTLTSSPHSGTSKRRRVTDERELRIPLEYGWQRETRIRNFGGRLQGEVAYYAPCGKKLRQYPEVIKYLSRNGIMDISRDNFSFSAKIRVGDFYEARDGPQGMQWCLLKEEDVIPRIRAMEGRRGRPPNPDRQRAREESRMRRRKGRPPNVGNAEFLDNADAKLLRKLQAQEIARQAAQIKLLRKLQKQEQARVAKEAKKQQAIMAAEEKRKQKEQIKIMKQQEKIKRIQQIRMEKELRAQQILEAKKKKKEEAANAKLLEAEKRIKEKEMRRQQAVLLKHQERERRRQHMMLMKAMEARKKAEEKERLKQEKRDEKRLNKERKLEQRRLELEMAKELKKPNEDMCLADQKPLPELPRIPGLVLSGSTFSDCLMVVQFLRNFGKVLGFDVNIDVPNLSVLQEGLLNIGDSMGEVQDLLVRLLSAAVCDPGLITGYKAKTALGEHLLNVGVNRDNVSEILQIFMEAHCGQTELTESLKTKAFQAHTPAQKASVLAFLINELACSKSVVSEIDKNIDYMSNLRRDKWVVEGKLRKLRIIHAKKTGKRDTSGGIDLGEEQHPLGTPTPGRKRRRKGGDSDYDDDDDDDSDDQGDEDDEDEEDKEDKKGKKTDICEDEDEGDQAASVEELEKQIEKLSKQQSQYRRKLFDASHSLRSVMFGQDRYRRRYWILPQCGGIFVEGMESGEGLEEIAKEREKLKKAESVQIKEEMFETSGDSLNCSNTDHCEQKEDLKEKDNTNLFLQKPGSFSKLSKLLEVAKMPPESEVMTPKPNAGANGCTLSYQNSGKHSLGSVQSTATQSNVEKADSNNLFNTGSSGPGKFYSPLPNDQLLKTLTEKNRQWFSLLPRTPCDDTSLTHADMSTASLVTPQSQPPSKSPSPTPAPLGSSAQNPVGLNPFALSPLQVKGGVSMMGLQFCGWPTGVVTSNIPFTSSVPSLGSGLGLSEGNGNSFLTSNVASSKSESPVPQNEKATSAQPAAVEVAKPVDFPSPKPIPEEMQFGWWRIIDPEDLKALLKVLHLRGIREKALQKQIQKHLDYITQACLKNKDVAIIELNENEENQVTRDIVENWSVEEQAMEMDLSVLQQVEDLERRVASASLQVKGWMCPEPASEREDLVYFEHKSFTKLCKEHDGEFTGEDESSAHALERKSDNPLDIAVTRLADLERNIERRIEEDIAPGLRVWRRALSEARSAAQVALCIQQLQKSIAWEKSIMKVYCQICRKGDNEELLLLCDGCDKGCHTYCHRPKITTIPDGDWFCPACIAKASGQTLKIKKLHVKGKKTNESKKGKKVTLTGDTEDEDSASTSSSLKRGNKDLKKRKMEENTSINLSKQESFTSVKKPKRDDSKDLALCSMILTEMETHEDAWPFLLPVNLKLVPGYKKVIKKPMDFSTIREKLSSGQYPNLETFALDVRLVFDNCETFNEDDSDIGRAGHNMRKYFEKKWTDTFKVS", "test": "qHTS Assay for Inhibitors of BAZ2B; also: nearly all actives have a fitted effect of over 60% in size", "conditions": "AlphaScreen BAZ2B-H3K14Ac peptide displacement; activity change, negative = inhibition: at 114 µM (top of the series) unless noted", "outline": "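AlphaScreen luminescence quantifies BAZ2B engagement of H3K14Ac peptide; the protein and biotinylated peptide are both at 50 nM final, buffer PBS pH 7.4 with 0.01% Tween-20, all steps at room temperature.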"}
{"molecule": "CC(=O)N1CCSc2ccc(S(=O)(=O)NCCc3cccc(C)c3)cc21", "activity change, negative = inhibition": "inactive: -25.4%"}
{"molecule": "CC(=O)C1=C(C)Nc2ncnn2C1c1ccc(C)cc1", "note": "(stereo not given)", "activity change, negative = inhibition": "inactive: -1.27%"}
{"molecule": "COc1cc(CSc2ncc(CO)n2Cc2ccc(C)cc2)cc(OC)c1", "Potency": "inconclusive: 3.16 µM [inhibitor, full curve]"}
{"molecule": "NS(=O)(=O)c1ccc(CNC(=O)c2cnccn2)cc1", "activity change, negative = inhibition": "inactive: -0.375%"}
{"molecule": "Cc1ccc(C(=O)NN2C(=O)/C(=C/c3cccn3C)SC2=S)cc1", "Potency": "active: 22.4 µM"}
{"molecule": "O=C(O)c1ccc(S(=O)(=O)N[C@H](Cc2ccc(C(F)(F)F)cc2)C(=O)O)cc1", "Potency": "inconclusive: 79.4 µM [inhibitor, single point]"}
{"molecule": "C=CCNC(=S)NNC(=O)c1ccc(=O)n(Cc2ccccc2)c1", "Potency": "inconclusive: 89.1 µM [inhibitor, single point]"}
{"molecule": "COn1c(=O)c(=O)n(O)c2ccccc21", "Potency": "inconclusive: 89.1 µM [inhibitor, single point]"}
{"molecule": "Cc1nn2cnnc2c(C)c1Cc1c(F)cccc1Cl", "activity change, negative = inhibition": "inactive: -1.34%"}
{"molecule": "O=c1[nH]n(CCO)c(=O)c2cccnc12", "Potency": "inconclusive: 89.1 µM [inhibitor, single point]"}
{"molecule": "CCC(=O)N(Cc1ccco1)c1nc(C(=O)Nc2ccc(Cl)cc2)c(C)s1", "activity change, negative = inhibition": "inactive: -37.5%"}
{"molecule": "O=C(NC1CC(=O)N(c2ccccc2)C1)c1ccc(S(=O)(=O)N2CCCC2)cc1", "note": "(stereo not given)", "activity change, negative = inhibition": "inactive: 1.92%"}
{"molecule": "O=C(OCc1ccccc1)C1=[N+]([O-])OC(C(=O)OCc2ccccc2)C1c1c[nH]c2ccccc12", "note": "(stereo not given)", "Potency": "inconclusive: 89.1 µM [inhibitor, single point]"}
{"molecule": "CNC(=S)N(CCc1c(C)[nH]c2ccc(OC)cc12)Cc1ccco1", "Potency": "inconclusive: 50.1 µM [inhibitor, partial curve]"}
{"molecule": "COc1ccc(S(=O)(=O)N2CCCC(C(=O)N3CCN(c4ccccc4)CC3)C2)cc1Cl", "note": "(stereo not given)", "Potency": "inconclusive: 56.2 µM [inhibitor, partial curve]"}
{"molecule": "Cc1ccc2nc(-c3ccccc3)oc(=O)c2c1", "activity change, negative = inhibition": "inactive: 13%"}
{"molecule": "O=C(Nc1ccc2snnc2c1)N1CCCCC1", "activity change, negative = inhibition": "inactive: -2.65%"}
{"molecule": "CCc1c(CN2CCN(c3cccc(C)c3)C(C)C2)csc1C", "note": "(stereo not given)", "Potency": "inconclusive: 79.4 µM [inhibitor, single point]"}
{"molecule": "OCCN1CCN(Cc2cc(Cl)c3cccnc3c2O)CC1", "Potency": "active: 7.94 µM"}
{"molecule": "O=C(c1ccc(S(=O)(=O)N2CCOCC2)cc1)N(c1cccc(Cl)c1)C1C=CS(=O)(=O)C1", "note": "(stereo not given)", "activity change, negative = inhibition": "inactive: 13.9%"}
{"molecule": "CCn1ccc(C(=O)NC2C(=O)N3C(C(=O)O)=C(C)CSC23)n1", "note": "(stereo not given)", "Potency": "inconclusive: 89.1 µM [inhibitor, single point]"}
{"molecule": "CCOc1ncccc1C(=O)Nc1cccc(C(=O)Nc2cccc(S(=O)(=O)CCO)c2)c1", "activity change, negative = inhibition": "inactive: -2.99%"}
{"molecule": "CCCCCCSc1ccc(-c2nc3ccccn3c2NCCCC)cc1", "Potency": "inconclusive: 100 µM [inhibitor, single point]"}
{"molecule": "CCOc1ccc(Oc2ccc(Cl)cc2N)cc1", "Potency": "inconclusive: 79.4 µM [inhibitor, single point]"}
{"molecule": "Cc1ccc(C(=O)O)cc1NC(=S)NC(=O)c1ccc(-c2ccc(Cl)cc2)o1", "Potency": "inconclusive: 50.1 µM [inhibitor, partial curve]"}
{"molecule": "COc1ccc(O)c(C(=O)c2cnc3c(c2)c(-c2ccc(F)cc2)c(C#N)c(=O)n3C)c1", "Potency": "inconclusive: 25.1 µM [inhibitor, full curve]"}
{"molecule": "O=C(CN1C(=O)NC2(CCCC2)C1=O)c1ccc(Cl)s1", "activity change, negative = inhibition": "inactive: -1.91%"}
{"molecule": "NS(=O)(=O)c1ccc(Nc2nc(-c3ccc(O)cc3)cs2)cc1", "activity change, negative = inhibition": "inactive: -35.1%"}
{"molecule": "COC(=O)[C@@H](NC(=O)NCc1ccccc1Cl)C(C)C", "activity change, negative = inhibition": "inactive: -4.81%"}
{"molecule": "COc1ccc(NC(=S)NCCc2ccccc2OC)c(OC)c1", "Potency": "inconclusive: 50.1 µM [inhibitor, partial curve]"}
{"molecule": "COCCn1c(-c2ccc(OC)cc2)cnc1N", "Potency": "inconclusive: 35.5 µM [inhibitor, partial curve]"}
{"molecule": "Oc1ccc(C2C(c3ccccc3)=NN=C(c3ccccc3F)N2O)c(O)c1", "note": "(stereo not given)", "Potency": "inconclusive: 79.4 µM [inhibitor, single point]"}
{"molecule": "CCN(CC)CCN(C(=O)CCS(=O)(=O)c1ccccc1)c1nc2cc(C)cc(C)c2s1", "activity change, negative = inhibition": "inactive: -15.2%"}
{"molecule": "Cc1cccn2c(=O)c(C=C(C#N)C#N)c(N3CCN(C)CC3)nc12", "activity change, negative = inhibition": "inactive: 2.29%"}
{"molecule": "COc1cc(/C=C2\\C=CC(=O)O2)cc(OC)c1", "activity change, negative = inhibition": "inactive: -1.72%"}
{"molecule": "O=C(CSc1nnc(-c2ccccc2O)n1-c1ccccc1)Nc1cccc(C(=O)O)c1", "Potency": "inconclusive: 89.1 µM [inhibitor, single point]"}
{"molecule": "CCn1cc(/C=C(\\NC(=O)c2cc(OC)c(OC)c(OC)c2)C(=O)N2CCN(C)CC2)c2ccccc21", "Potency": "inconclusive: 79.4 µM [inhibitor, partial curve]"}
{"molecule": "Cc1ccc(CNC(=O)c2ccc(Cn3cc(-c4ccc(C)cc4)nc3-c3ccncc3)cc2)cc1", "Potency": "inconclusive: 39.8 µM [inhibitor, full curve, poor fit]"}
{"molecule": "COc1ccc(Nc2nc(OC)nc(OC)n2)cc1", "activity change, negative = inhibition": "inactive: 0.449%"}
{"molecule": "COc1cccc(NC(=O)CCC2CCN(C(=O)c3scnc3C)CC2)c1", "activity change, negative = inhibition": "inactive: -6.33%"}
{"molecule": "c1cc(C2CCN(Cc3nc(-c4ccc5c(c4)OCO5)no3)CC2)ccn1", "Potency": "active: 56.2 µM"}
{"molecule": "CCOc1cc(/C=N/Nc2ccccc2Cl)ccc1OCC(=O)O", "Potency": "inconclusive: 17.8 µM [inhibitor, partial curve]"}
{"molecule": "CC1=NN(c2ccccc2)C(=O)/C1=C\\c1ccc(Oc2ccc([N+](=O)[O-])cc2[N+](=O)[O-])cc1", "Potency": "active: 39.8 µM"}
{"molecule": "COC(=O)c1ccccc1OCCOc1ccccc1C(=O)OC", "activity change, negative = inhibition": "inactive: 6.99%"}
{"molecule": "O=C(c1cccc(Cl)c1)N1CCn2c1nc1ccccc12", "activity change, negative = inhibition": "inactive: -13.8%"}
{"molecule": "O=C1CSC(=S)N1N1C(=O)c2cccc([N+](=O)[O-])c2C1=O", "Potency": "inconclusive: 6.31 µM [inhibitor, partial curve, poor fit]"}
{"molecule": "COc1ccc(C(=O)NC(=S)NCc2ccccc2)cc1", "Potency": "inconclusive: 79.4 µM [inhibitor, single point]"}
{"molecule": "Cc1c(C(=O)NCc2ccccc2Br)oc2ccc3c(c12)C(=O)CC(C)(C)O3", "activity change, negative = inhibition": "inactive: -5.06%"}
{"molecule": "O=C1c2cccc(O)c2C(=O)c2c(O)cccc21", "Potency": "inconclusive: 7.94 µM [inhibitor, full curve]"}
{"molecule": "COc1ccc(-c2nc(S(=O)(=O)c3ccc(C)cc3)c(NCc3ccccc3)o2)cc1", "activity change, negative = inhibition": "inactive: -27.4%"}
{"molecule": "CCOc1ccccc1N1CCN(C(=O)c2ccc3[nH]c4c(c3c2)CCCC4)CC1", "Potency": "active: 39.8 µM"}
{"molecule": "O=C(CSc1nnc(-c2ccccc2)c(-c2ccccc2)n1)NCc1ccco1", "Potency": "inconclusive: 79.4 µM [inhibitor, single point]"}
{"molecule": "CCOc1cc(N2CCOCC2)c(OCC)cc1NC(=O)CN1CCCC(C)C1", "note": "(stereo not given)", "Potency": "inconclusive: 50.1 µM [inhibitor, partial curve]"}
{"molecule": "c1ccc(Oc2cccc(OCCCCN3CCCC3)c2)cc1", "Potency": "active: 56.2 µM"}
{"molecule": "Cc1noc2ncnc(N3CCCC(C(=O)Nc4cccc(C(F)(F)F)c4)C3)c12", "note": "(stereo not given)", "activity change, negative = inhibition": "inactive: 5.52% [at 57.1 µM]"}
{"molecule": "CC(=O)NC1C(OCCOc2ccc(Cl)cc2C)OC(CO)C(O)C1O", "note": "(stereo not given)", "activity change, negative = inhibition": "inactive: -7.05%"}
{"molecule": "CC(C)c1ccc(NC(=O)Cn2c(=O)oc3cc(S(=O)(=O)N4CCCC4)ccc32)cc1", "activity change, negative = inhibition": "inactive: -4.13%"}
{"molecule": "Cc1ccc2nc(SCC(=O)NC(=O)NCc3ccco3)[nH]c2c1", "Potency": "inconclusive: 50.1 µM [inhibitor, partial curve]"}
{"molecule": "COc1ccc(CC(=O)N2CCc3cc(OC)c(OC)cc3C2)cc1", "activity change, negative = inhibition": "inactive: 6.13%"}
{"molecule": "O=C(O)CSc1c2c(nc3cc(C(=O)NCCN4CCOCC4)ccc13)CCC2", "Potency": "inconclusive: 39.8 µM [inhibitor, partial curve, poor fit]"}
{"molecule": "COc1ccc(N2CCN(c3ccc(N)cc3C#N)CC2)cc1", "Potency": "inconclusive: 25.1 µM [inhibitor, full curve]"}
{"molecule": "C=CCn1c(C)cc(C(=O)CSc2nc(N)cc(N)n2)c1C", "Potency": "inconclusive: 79.4 µM [inhibitor, partial curve]"}
{"molecule": "COc1cc2cc(C(=O)N(C)C3CCS(=O)(=O)C3)[nH]c2cc1OC", "note": "(stereo not given)", "Potency": "inconclusive: 79.4 µM [inhibitor, partial curve]"}
{"molecule": "CCNC(=S)NC(=NCc1cccnc1)Nc1nc(C)cc(C)n1", "activity change, negative = inhibition": "inactive: 0.83%"}
{"molecule": "CC(=O)C1=C(c2ccccc2)NC(=S)NC1c1ccc(O)c(O)c1", "note": "(stereo not given)", "Potency": "inconclusive: 50.1 µM [inhibitor, partial curve]"}
{"molecule": "Cc1ccc(Cn2c(C(=O)NCCCN3CCOCC3)cc3sccc32)cc1", "Potency": "inconclusive: 79.4 µM [inhibitor, single point]"}
{"molecule": "O=C(Nc1nc2ccc(Br)cc2s1)c1ccco1", "Potency": "inconclusive: 79.4 µM [inhibitor, single point]"}
{"molecule": "CCOc1ccc(-c2cc(NC(=O)Nc3ccccc3C(F)(F)F)c(C(=O)OC)s2)cc1", "activity change, negative = inhibition": "inactive: -13.2%"}
{"molecule": "COc1ccc(/C=N/Nc2nc(-c3ccc(Cl)cc3)cc(C(F)(F)F)n2)cc1OC", "Potency": "inconclusive: 79.4 µM [inhibitor, single point]"}
{"molecule": "O=C(N/N=C/c1cc(Br)cc(Br)c1O)c1cccc(N2CCCC2=O)c1", "Potency": "inconclusive: 79.4 µM [inhibitor, single point]"}
{"molecule": "Cn1cccc1CNC(=S)Nc1cc(F)cc(F)c1", "Potency": "inconclusive: 89.1 µM [inhibitor, single point]"}
{"molecule": "CN1CCN(C2=Cc3ccccc3Sc3cc(F)c(F)cc32)CC1", "Potency": "active: 44.7 µM"}
{"molecule": "Cc1ccc(C(=O)c2ccc([N+](=O)[O-])cc2)cc1C", "Potency": "inconclusive: 79.4 µM [inhibitor, single point]"}
{"molecule": "CC(=O)[C@H]1[C@@H]2C(=O)N(c3cccc(Cl)c3)C(=O)[C@@H]2[C@H]2c3ccccc3C=CN21", "Potency": "inconclusive: 89.1 µM [inhibitor, single point]"}
{"molecule": "N=C1/C(=C/c2cccn2-c2cccc([N+](=O)[O-])c2)C(=O)N=C2SC=CN12", "Potency": "inconclusive: 50.1 µM [inhibitor, partial curve]"}
